Measured values: the supplement of paper PMC11348887
Structures can show the parent of a compound that is named as a salt. The list shows a part of the results. No stated cut-off is given here; in the data, active = -2 or less and inactive = the rest. Repeats are few or missing, and single values can be far off.

system: hPSC-derived cortical neurons (WA09); experiment: nuclei number (viability) z-score; higher = more surviving cells; conditions: 5 µM; treatment: days 7-14 after plating, readout day 21
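Further: nuclei counted from DAPI counterstain by automated high-content image analysis, four fields per well at ×20 in 384-well plates, with sequential b-score then z-score normalization.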

Compound	nuclei number (z-score)
N#C[C@H](O[C@@H]1O[C@H](C(=O)O)[C@@H](O)[C@H](O)[C@H]1O)c1ccccc1 [Laetrile]	inactive: -1.59
CN[C@@H]1[C@@H](O)[C@@H](O[C@@H]2[C@@H](O)[C@H](O[C@H]3O[C@H]([C@@H](C)O)[C@@H](O)[C@H](O)[C@H]3N)[C@@H](N)C[C@H]2N)OC[C@]1(C)O [Geneticin (G418 Sulfate)]	inactive: 0.324
CCC1=C[C@H]2CN3CCc4c([nH]c5ccccc45)[C@](C(=O)OC)(C2)[C@H]13 [Catharanthine]	inactive: -0.796
CNCC(O)c1ccc(O)cc1 (stereo not given) [Synephrine]	inactive: 0.0377
CNCC(O)c1ccc(O)cc1 (stereo not given) [Synephrine HCl]	inactive: 0.942
CCOc1ccccc1-n1c(C(C)N2CCN(C(=O)COc3ccc(Cl)cc3)CC2)nc2ccccc2c1=O (stereo not given) [Erastin]	inactive: -0.51
CN1[C@@H]2CC[C@H]1C[C@@H](OC(=O)C(CO)c1ccccc1)C2 (stereo not given in full) [Atropine]	inactive: -0.503
CCc1c(C(=O)C(N)=O)c2c(OCC(=O)O)cccc2n1Cc1ccccc1	inactive: 0.597
Cc1sc2c(c1C)C(c1ccc(Cl)cc1)=N[C@@H](CC(=O)Nc1ccc(O)cc1)c1nnc(C)n1-2	active: -4.53
COc1ccc(C(CN(C)C)C2(O)CCCCC2)cc1 (stereo not given) [Venlafaxine]	inactive: -0.0194
CN(C)C(=O)Oc1cccc([N+](C)(C)C)c1 [Neostigmine Bromide]	inactive: 0.0157
Nc1ncnc2c1ccn2[C@@H]1O[C@H](CO)[C@@H](O)[C@H]1O [Tubercidin]	active: -6.68
C[C@H]1CNCCc2ccc(Cl)cc21 [Lorcaserin HCl]	inactive: 0.524
C=C1C[C@@H]2[C@H](CC[C@]3(C)C(=O)CC[C@@H]23)[C@@]2(C)C=CC(=O)C=C12 [Exemestane]	inactive: 2.27
COc1cc(C)[nH]c(=O)c1CNC(=O)c1c(C)n([C@H](C)C2CCOCC2)c2ccccc12	inactive: 0.347
CN1C(=O)CCS(=O)(=O)C1c1ccc(Cl)cc1 (stereo not given) [Chlormezanone]	inactive: 0.276
O=P1(N(CCCl)CCCl)NCCCO1 (stereo not given) [Cyclophosphamide Monohydrate]	inactive: 2.36
c1ccc2c(c1)sc1ccccc12 [Dibenzothiophene]	inactive: -0.000322

Compound	nuclei number (z-score)
CC(=O)NC1CCSC1=O (stereo not given) [Citiolone]	inactive: 0.19
Cc1ccc(-n2nccn2)c(C(=O)N2CCN(c3nc4cc(Cl)ccc4o3)CC[C@H]2C)c1 [Suvorexant (MK-4305)]	inactive: 7.12
CCCN1CCO[C@@H]2c3cc(O)ccc3OC[C@H]21	inactive: -0.275
CCCCCCCCCCCCCCCC[n+]1ccccc1 [Cetylpyridinium Chloride]	active: -5.11
O.O.O.O=C([O-])C1[O][Sb]2[O]C(=O)C([O]2)C(C(=O)[O-])[O][Sb]2[O]C(=O)C1[O]2.[K+].[K+] (stereo not given) [Antimonyl potassium tartrate trihydrate]	active: -5.23
Cn1c(COP(=O)(NCCBr)NCCBr)cnc1[N+](=O)[O-]	inactive: -0.968
C=CN1CCCC1=O.II [Povidone iodine]	inactive: 4.28
Cc1sc2c(c1C)C(c1ccc(Cl)cc1)=N[C@@H](CC(=O)OC(C)(C)C)c1nnc(C)n1-2	active: -3.32
O=C(CC1NCCCC1O)Cn1cnc2cc(Br)c(Cl)cc2c1=O (stereo not given) [Halofuginone]	active: -5.26
CCc1cc2c(s1)-n1c(C)nnc1CN=C2c1ccccc1Cl [Etizolam]	inactive: 0.478
COc1cc(OC)c(OC)cc1C=O [Asaraldehyde]	inactive: -0.401
C[N+]1(C)CCCC(OC(=O)C(O)(c2ccccc2)c2ccccc2)C1 (stereo not given) [Mepenzolate Bromide]	inactive: 1.39
OC(c1ccccc1)(c1ccccc1)C1CCNCC1 [Azacyclonol]	active: -5.25
CCC1(C)CC(=O)NC(=O)C1 [Bemegride]	inactive: 0.624
C/C(O)=C(\C#N)C(=O)Nc1cc(Br)ccc1Br	inactive: -0.318
CCN(Cc1ccc(Cl)nc1)/C(=C/[N+](=O)[O-])NC [Nitenpyram]	inactive: 0.6
Cc1ccccc1-n1c(Cn2ncc3c(N)ncnc32)nc2cccc(C)c2c1=O	inactive: -0.138
